From the supplement of paper PMC4967469 come the findings set out here.

Compound in one assay: NC(=O)c1ncn([C@@H]2O[C@H](CO)[C@@H](O)[C@H]2O)c1N [AICAR]
Description: Viability of human cancer cell lines after 72 h of drug (GDSC screen). The following applies: top dose 2000 µM; top dose inferred. The protocol: (§1)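 Human cancer cell lines in 384-well plates, medium with 10% serum, drug for 72 h over a 256-fold dose range (nine 2-fold or five 4-fold steps up to the top dose). Adherent lines were fixed and stained with the nucleic acid dye Syto60, suspension lines read with resazurin; signal relative to control wells, capped at 0 and 100%. One two-parameter sigmoid per drug and line, fitted in a mixed model over all curves with the slope shared within a line.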

Compound in a further assay: O=c1[nH]c2ccccc2n1C1CCN(Cc2ccc(-c3[nH]c4cc5ncnc5cc4nc3-c3ccccc3)cc2)CC1 [AKT inhibitor VIII]
The assay is described as above. Particulars: top dose inferred. On the procedure: as §1

Where [1] appears, read: top dose 2.56 µM, screen: GDSC drug entry 171.
[2] abbreviates: top dose 10.24 µM, screen: GDSC drug entry 228.

A lower IC50 marks a more sensitive line; a fit beyond the top or the lowest dose is shown as a bound at that dose. AUC, from the same fit, is the share of area under the viability curve across the 256-fold dose range; values near 1 show little effect. A top dose marked as inferred was derived from the fitted curves, not read from the paper. For part of these data: Where an entry number is given, a second screen of the drug exists; the two often differ.

What is called IC50 is the point on the concentration scale where inhibition reaches its midpoint. With SW13 (adrenal gland, adherent), the AUC worked out at 0.976 in the assay with AICAR, 0.984 with AKT inhibitor VIII (setting [1]) and 0.933 with AKT inhibitor VIII (setting [2]). Also, the figures for the IC50 in the assay with AICAR, with AKT inhibitor VIII (setting [1]) and with AKT inhibitor VIII (setting [2]) were more than 2000 µM, more than 2.56 µM and more than 10.2 µM, respectively.
For the cell line SW48 (large intestine, adherent), the AUC with AICAR turned out to be 0.806; in the assay with AKT inhibitor VIII (setting [1]), 0.968; with AKT inhibitor VIII (setting [2]), 0.964. Besides, the IC50 with AICAR is 1010 µM; in the assay with AKT inhibitor VIII (setting [1]) it was more than 2.56 µM; with AKT inhibitor VIII (setting [2]), more than 10.2 µM.
Take SW620 (large intestine, adherent): the AUC in the assay with AICAR is 0.95; with AKT inhibitor VIII (setting [1]), 0.99; with AKT inhibitor VIII (setting [2]), 0.799. In addition, the half-maximal inhibitory concentration (IC50) was more than 2000 µM in the assay with AICAR, more than 2.56 µM with AKT inhibitor VIII (setting [1]) and 4.26 µM in the assay with AKT inhibitor VIII (setting [2]).
As to SW626 (ovary, adherent), the AUC with AICAR was 0.977; with AKT inhibitor VIII (setting [1]) it was 0.921; with AKT inhibitor VIII (setting [2]) it was 0.836. Besides, the results for the IC50 in the assay with AICAR, in the assay with AKT inhibitor VIII (setting [1]) and with AKT inhibitor VIII (setting [2]) were more than 2000 µM, more than 2.56 µM and 8.62 µM, respectively.
In the case of SW756 (cervix, adherent), the AUC was found to be 0.956 with AICAR, 0.982 in the assay with AKT inhibitor VIII (setting [1]) and 0.985 with AKT inhibitor VIII (setting [2]). Moreover, the IC50 was more than 2000 µM with AICAR, more than 2.56 µM in the assay with AKT inhibitor VIII (setting [1]) and more than 10.2 µM with AKT inhibitor VIII (setting [2]).
In the case of SW780 (bladder, adherent), the values for the AUC with AICAR, in the assay with AKT inhibitor VIII (setting [1]) and with AKT inhibitor VIII (setting [2]) were 0.882, 0.871 and 0.986, respectively. Also, the IC50 with AICAR is more than 2000 µM; in the assay with AKT inhibitor VIII (setting [1]), more than 2.56 µM; in the assay with AKT inhibitor VIII (setting [2]) it was more than 10.2 µM.
For SW948 (large intestine, adherent), the values for the AUC with AICAR, with AKT inhibitor VIII (setting [1]) and in the assay with AKT inhibitor VIII (setting [2]) were 0.966, 0.973 and 0.981, respectively. Further, the IC50 with AICAR was more than 2000 µM; with AKT inhibitor VIII (setting [1]), more than 2.56 µM; in the assay with AKT inhibitor VIII (setting [2]), more than 10.2 µM.
With SW962 (urogenital system, adherent), the AUC with AICAR was found to be 0.933; with AKT inhibitor VIII (setting [1]), 0.918; with AKT inhibitor VIII (setting [2]), 0.886. The figures for the IC50 with AICAR, in the assay with AKT inhibitor VIII (setting [1]) and with AKT inhibitor VIII (setting [2]) were more than 2000 µM, more than 2.56 µM and more than 10.2 µM, respectively.
Take SW982 (soft tissue, adherent): the AUC with AICAR came out at 0.843; in the assay with AKT inhibitor VIII (setting [1]) it was 0.985; with AKT inhibitor VIII (setting [2]) it was 0.925. The results for the IC50 with AICAR, with AKT inhibitor VIII (setting [1]) and with AKT inhibitor VIII (setting [2]) were 1490 µM, more than 2.56 µM and more than 10.2 µM, respectively.
As to “SW1271 (small cell lung carcinoma, adherent)”, the AUC came to 0.984 in the assay with AICAR, 0.946 with AKT inhibitor VIII (setting [1]) and 0.925 with AKT inhibitor VIII (setting [2]). Further, the values for the IC50 with AICAR, with AKT inhibitor VIII (setting [1]) and with AKT inhibitor VIII (setting [2]) were more than 2000 µM, more than 2.56 µM and more than 10.2 µM, respectively.
On to SW1417 (large intestine, adherent), for which the AUC came to 0.946 with AICAR, 0.986 with AKT inhibitor VIII (setting [1]) and 0.884 in the assay with AKT inhibitor VIII (setting [2]). Moreover, the values for the IC50 in the assay with AICAR, with AKT inhibitor VIII (setting [1]) and with AKT inhibitor VIII (setting [2]) were more than 2000 µM, more than 2.56 µM and more than 10.2 µM, respectively.
As to SW1573 (lung adenocarcinoma, adherent), the AUC turned out to be 0.948 with AICAR, 0.973 with AKT inhibitor VIII (setting [1]) and 0.963 with AKT inhibitor VIII (setting [2]). Moreover, the IC50 with AICAR is more than 2000 µM; in the assay with AKT inhibitor VIII (setting [1]), more than 2.56 µM; in the assay with AKT inhibitor VIII (setting [2]), more than 10.2 µM.
With SW1710 (bladder, adherent), the AUC amounted to 0.969 with AICAR, 0.832 in the assay with AKT inhibitor VIII (setting [1]) and 0.863 with AKT inhibitor VIII (setting [2]). Also, the IC50 in the assay with AICAR is more than 2000 µM; with AKT inhibitor VIII (setting [1]) it was 1.71 µM; with AKT inhibitor VIII (setting [2]), 9.28 µM.
Consider SW1783 (glioma, adherent), for which the AUC came out at 0.935 with AICAR, 0.959 in the assay with AKT inhibitor VIII (setting [1]) and 0.958 with AKT inhibitor VIII (setting [2]). Besides, the results for the IC50 in the assay with AICAR, in the assay with AKT inhibitor VIII (setting [1]) and with AKT inhibitor VIII (setting [2]) were more than 2000 µM, more than 2.56 µM and more than 10.2 µM, respectively.
For SW1990 (pancreas, adherent), the AUC is 0.828 with AICAR, 0.954 with AKT inhibitor VIII (setting [1]) and 0.983 with AKT inhibitor VIII (setting [2]). Further, the values for the IC50 with AICAR, with AKT inhibitor VIII (setting [1]) and with AKT inhibitor VIII (setting [2]) were 1530 µM, more than 2.56 µM and more than 10.2 µM, respectively.
On to Saos-2 (osteosarcoma, adherent), for which the AUC worked out at 0.953 with AICAR, 0.942 with AKT inhibitor VIII (setting [1]) and 0.981 with AKT inhibitor VIII (setting [2]). Besides, the IC50 was more than 2000 µM in the assay with AICAR, more than 2.56 µM with AKT inhibitor VIII (setting [1]) and more than 10.2 µM with AKT inhibitor VIII (setting [2]).
Take SiHa (cervix, adherent): the figures for the AUC with AICAR, with AKT inhibitor VIII (setting [1]) and with AKT inhibitor VIII (setting [2]) were 0.975, 0.969 and 0.985, respectively. Further, the IC50 is more than 2000 µM with AICAR, more than 2.56 µM with AKT inhibitor VIII (setting [1]) and more than 10.2 µM with AKT inhibitor VIII (setting [2]).
For the cell line T47D (breast, adherent), the AUC in the assay with AICAR came to 0.691; in the assay with AKT inhibitor VIII (setting [1]), 0.695; with AKT inhibitor VIII (setting [2]), 0.509. Moreover, the IC50 in the assay with AICAR amounted to 576 µM; in the assay with AKT inhibitor VIII (setting [1]) it was 0.765 µM; with AKT inhibitor VIII (setting [2]) it was 0.684 µM.
T84 (large intestine, adherent): the AUC with AICAR came to 0.962; with AKT inhibitor VIII (setting [1]), 0.979; in the assay with AKT inhibitor VIII (setting [2]) it was 0.873. Moreover, the IC50 in the assay with AICAR is more than 2000 µM; with AKT inhibitor VIII (setting [1]), more than 2.56 µM; with AKT inhibitor VIII (setting [2]) it was 10.1 µM.
